# Assay results: the supplement of paper PMC8728848
# The other results are listed elsewhere or left out.
# B1: Epa1-NP-mutant-Y228A (Candida glabrata), Q6VBJ0 (protein)
# chain: MILNPALFLNKCVCIYTTLILLLLTNGGYATSSNDISLASKDPTTFPLGCSPDITTPKKGLSMELYSYDFRKKGSYPCWDAAYLDPNYPRTGYKSHRLLAKVDGVTGNINFYYHATKGCTPQLGHLPASYNYPKPLTMTNFTMLLYGYFRPKVTGFHTFTISADDLLFVNFGAGNAFDCCRRDSSADHFGNYQAYAIWGSKTAKDELTVHLDAGVYYPIRLFYNNREADGALSFTFKTESNENTVSDFSEYFFSLDDTEEGCPGLISYDSSCASVKTSKIIGIDYHTETPNENLVPITKTIYHLGIPCTGTTTTPLCGSGFYDPLANKCVTINTSSTSSVTKTTSHTTSKEVSFHSSISSQKTLIPKSIPSPYGPIKSQSIPTEMETSSEISSSEYAFSDVISTPSHSPYTKKHSSLNSSSYTSTVIHSLTSYSISQGIFSTSLSEQNITSKSSTDKFSTATSMSNNITQSSIIISQFSTNNENYTTTSMHTSSDKISTETLNNSISTTTSILFSNSSTILKNNTTIISSDKDTHYHPVNPTIVCSTNKTEIICASITQPSISNSNNHWSSSVLKFNSTTVRSTLPSSAGSNETSINVPFSSSTESNTSTSSTSTSNSKMVRSTLPSSAGSNETSISVPFSSSTESNTSTSSTSTSNSKMVRSTLPSSAGSNETSINVPFSSSTESNTSTSSTSTSNSKTVRSTPFSSAGIIMTSLSQRNNKSASSYASSNSKCYNTADSCRKVHSTPSYLLTSSYTSEGVDYDCSLVSTKLKINDTNCVNNKHTTKSCLKTSVTTTIPTLEIKTARKSSSNTIGLHSYPTSSPNKSISSAPIIGYISSFKTIKTASPSYQTSDLTTITTITSLNNPGSTAVENTHESNDKSRKTSSNDISSKHSVIKETKDAVESSNKSHQTNTLKCSSIIIASSSHNSYESLGGTTLTLTLSKVYSPQNNDTLPFLEISEVNPSRTVLPESSKMMQYLTSTEERNKTARNTIATNIVSISTFHFEGEGNAIRMGYTQLLLMLIGIIVMNIGT
# Key:
# Assay in all cases: glycan array binding signal (z-score within array); higher = stronger binding
# Details in all cases: glycan notation: IUPAC condensed, linker removed; mutation: Y228A
# [1] = target: Gal(b1-3)GlcNAc(b1-2)Man(a1-3)[Gal(b1-3)GlcNAc(b1-2)Man(a1-6)]Man(b1-4)GlcNAc(b1-4)GlcNAc
# Outline: (§1)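 Glycan array data were curated from 3228 arrays in the Consortium for Functional Glycomics database and kept only where the protein sequence was available. Glycan names were converted to IUPAC-condensed notation, and columns mapping to the same glycan were averaged. The binding signal is a within-array Z-score, averaged across arrays of the same protein sequence at different concentrations or buffers and across linkers. Negative Z-scores can be read as non-binding.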
# [2] = target: Gal(b1-3)GlcNAc(b1-2)Man(a1-3)[Gal(b1-3)GlcNAc(b1-2)Man(a1-6)]Man(b1-4)GlcNAc(b1-4)[Fuc(a1-6)]GlcNAc
# Outline: as §1
# [3] = target: Gal(b1-3)GlcNAc(b1-2)Man(a1-3)[GlcNAc(b1-4)][Gal(b1-3)GlcNAc(b1-2)Man(a1-6)]Man(b1-4)GlcNAc(b1-4)GlcNAc
# Outline: as §1
# [4] = target: Gal(b1-3)GlcNAc(b1-2)[Gal(b1-3)GlcNAc(b1-6)]Man(a1-6)[Gal(b1-3)GlcNAc(b1-2)Man(a1-3)]Man(b1-4)GlcNAc(b1-4)GlcNAc
# Outline: as §1
# [5] = target: Gal(b1-3)GlcNAc(b1-3)Gal(b1-3)GlcNAc
# Outline: as §1
# [6] = target: Gal(b1-3)GlcNAc(b1-3)Gal(b1-4)Glc
# Outline: as §1
# [7] = target: Gal(b1-3)GlcNAc(b1-3)Gal(b1-4)GlcNAc
# Outline: as §1
# [8] = target: Gal(b1-3)GlcNAc(b1-3)Gal(b1-4)GlcNAc(b1-2)Man(a1-3)[Gal(b1-3)GlcNAc(b1-3)Gal(b1-4)GlcNAc(b1-2)Man(a1-6)]Man(b1-4)GlcNAc(b1-4)GlcNAc
# Outline: as §1
# [9] = target: Gal(b1-3)GlcNAc(b1-3)Gal(b1-4)GlcNAc(b1-2)[Gal(b1-3)GlcNAc(b1-3)Gal(b1-4)GlcNAc(b1-6)]Man(a1-6)[Gal(b1-3)GlcNAc(b1-3)Gal(b1-4)GlcNAc(b1-2)Man(a1-3)]Man(b1-4)GlcNAc(b1-4)[Fuc(a1-6)]GlcNAc
# Outline: as §1
# [10] = target: Gal(b1-3)GlcNAc(b1-3)Gal(b1-4)GlcNAc(b1-3)Gal(b1-4)GlcNAc(b1-2)[Gal(b1-3)GlcNAc(b1-3)Gal(b1-4)GlcNAc(b1-3)Gal(b1-4)GlcNAc(b1-6)]Man(a1-6)[Gal(b1-3)GlcNAc(b1-3)Gal(b1-4)GlcNAc(b1-3)Gal(b1-4)GlcNAc(b1-2)Man(a1-3)]Man(b1-4)GlcNAc(b1-4)[Fuc(a1-6)]GlcNAc
# Outline: as §1
# [11] = target: Gal(b1-3)GlcNAc(b1-3)Gal(b1-4)GlcNAc(b1-6)[Gal(b1-3)GlcNAc(b1-3)]Gal(b1-4)Glc
# Outline: as §1
# [12] = target: Gal(b1-3)GlcNAc(b1-3)Gal(b1-4)[Fuc(a1-3)]GlcNAc
# Outline: as §1
# [13] = target: Gal(b1-3)GlcNAc(b1-3)Gal(b1-4)[Fuc(a1-3)]GlcNAc(b1-6)[Gal(b1-3)GlcNAc(b1-3)]Gal(b1-4)Glc
# Outline: as §1
# [14] = target: Gal(b1-3)GlcNAc(b1-3)GalNAc
# Outline: as §1
# [15] = target: Gal(b1-3)GlcNAc(b1-6)Gal(b1-4)GlcNAc
# Outline: as §1
# [16] = target: Gal(b1-3)GlcNAc(b1-6)GalNAc
# Outline: as §1
# [17] = target: Gal(b1-3)GlcNAc(b1-6)[Gal(b1-3)]GalNAc
# Outline: as §1
# Gal(b1-3)GlcNAc6S = target: Gal(b1-3)GlcNAc6S
# Outline: as §1
# [18] = target: Gal(b1-3)[Fuc(a1-4)]GlcNAc
# Outline: as §1
# [19] = target: Gal(b1-3)[Fuc(a1-4)]GlcNAc(b1-2)Man
# Outline: as §1
# [20] = target: Gal(b1-3)[Fuc(a1-4)]GlcNAc(b1-2)Man(a1-3)[Gal(b1-3)[Fuc(a1-4)]GlcNAc(b1-2)Man(a1-6)]Man(b1-4)GlcNAc(b1-4)[Fuc(a1-6)]GlcNAc
# Outline: as §1
# [21] = target: Gal(b1-3)[Fuc(a1-4)]GlcNAc(b1-3)Gal(b1-3)[Fuc(a1-4)]GlcNAc
# Outline: as §1
# [22] = target: Gal(b1-3)[Fuc(a1-4)]GlcNAc(b1-3)Gal(b1-4)[Fuc(a1-3)]GlcNAc
# Outline: as §1
# [23] = target: Gal(b1-3)[Fuc(a1-4)]GlcNAc(b1-6)GalNAc
# Outline: as §1
# [24] = target: Gal(b1-3)[GlcNAc(b1-6)]GalNAc
# Outline: as §1
# [25] = target: Gal(b1-3)[Neu5Ac(a2-6)]GalNAc
# Outline: as §1
# [26] = target: Gal(b1-3)[Neu5Ac(a2-6)]GlcNAc(b1-4)Gal(b1-4)Glc
# Outline: as §1
# [27] = target: Gal(b1-3)[Neu5Ac(b2-6)]GalNAc
# Outline: as §1
# Gal(b1-4)Gal = target: Gal(b1-4)Gal
# Outline: as §1
# [28] = target: Gal(b1-4)GalNAc(a1-3)[Fuc(a1-2)]Gal(b1-4)GlcNAc
# Outline: as §1
binder,measurement,setting,value
B1,glycan array binding signal (z-score),[1],2.18
same,glycan array binding signal (z-score),[2],2.29
same,glycan array binding signal (z-score),[3],2.24
same,glycan array binding signal (z-score),[4],1.57
same,glycan array binding signal (z-score),[5],0.756
same,glycan array binding signal (z-score),[6],0.604
same,glycan array binding signal (z-score),[7],0.837
same,glycan array binding signal (z-score),[8],0.855
same,glycan array binding signal (z-score),[9],0.799
same,glycan array binding signal (z-score),[10],1.24
same,glycan array binding signal (z-score),[11],2.26
same,glycan array binding signal (z-score),[12],-0.046
same,glycan array binding signal (z-score),[13],-0.03
same,glycan array binding signal (z-score),[14],-0.135
same,glycan array binding signal (z-score),[15],2.32
same,glycan array binding signal (z-score),[16],-0.142
same,glycan array binding signal (z-score),[17],0.385
same,glycan array binding signal (z-score),Gal(b1-3)GlcNAc6S,7.1
same,glycan array binding signal (z-score),[18],-0.191
same,glycan array binding signal (z-score),[19],-0.072
same,glycan array binding signal (z-score),[20],-0.006
same,glycan array binding signal (z-score),[21],-0.23
same,glycan array binding signal (z-score),[22],-0.097
same,glycan array binding signal (z-score),[23],-0.184
same,glycan array binding signal (z-score),[24],-0.188
same,glycan array binding signal (z-score),[25],0.209
same,glycan array binding signal (z-score),[26],-0.161
same,glycan array binding signal (z-score),[27],-0.117
same,glycan array binding signal (z-score),Gal(b1-4)Gal,-0.071
same,glycan array binding signal (z-score),[28],-0.277
